The structures appear in SMILES notation. The list shows a part of the results.

The first experiment relates to HepG2. In words: cytotoxicity call (relative viability < 0.9). Particulars: 10 µM.
Turning to `C[C@H]1CN([C@@H](C)CO)S(=O)(=O)c2ccc(C#Cc3ccccc3)cc2O[C@@H]1CN(C)S(=O)(=O)c1cn(C)cn1`, the cytotoxicity call is “inactive”. In the case of `N#CC1(N[C@@H](Cc2ccccc2)c2ccccc2)CCCCCC1`, the cytotoxicity call is “inactive”.

For the compound `C[C@H](CO)N1C[C@H](C)[C@H](CN(C)C(=O)Nc2ccc(C(F)(F)F)cc2)Oc2c(NS(=O)(=O)c3ccc(F)cc3)cccc2C1=O`, the cytotoxicity call is “inactive”. In the case of `O=C(C[C@H]1CC[C@@H](NC(=O)CN2CCOCC2)[C@H](CO)O1)NCCc1ccccc1`, the cytotoxicity call is “inactive”. For the compound `Cc1c(C)c(C)c(CN)c(C)c1C`, the cytotoxicity call is “inactive”.

Take `COc1cc2c(cc1OC)[C@]1(Nc3c-2c(-c2ccccc2)nn3-c2ccccc2)C(=O)Nc2ccccc21`: the cytotoxicity call was “inactive”. Consider `C[C@@H]1CN([C@@H](C)CO)S(=O)(=O)c2ccc(-c3cccnc3)cc2O[C@H]1CN(C)C(=O)NC1CCCCC1`, for which the cytotoxicity call was “inactive”.

The subject of the next experiment is S. aureus RN4220. In words: growth inhibition call (relative growth <= 0.2). The conditions noted are these: 50 µM.
For the compound `C[C@H]1CN([C@@H](C)CO)C(=O)c2cc(/C=C/c3ccccc3)cnc2O[C@@H]1CN(C)C(=O)C1CCOCC1`, the growth inhibition call is “inactive”. On to `C[C@H](CO)N1C[C@H](C)[C@@H](CN(C)Cc2ccc(C(F)(F)F)cc2)Oc2ccc(NC(=O)Nc3ccccc3)cc2C1=O`, for which the growth inhibition call was “inactive”. Regarding `O=C(CCCCCCC(=O)N/N=C/[C@@H](O)[C@@H](O)[C@H](O)[C@H](O)CO)NO`, the growth inhibition call is “inactive”.

Turning to `CCCN(C)C[C@@H]1OCCCC[C@@H](C)Oc2ccc(NC(=O)Nc3c(C)noc3C)cc2C(=O)N([C@H](C)CO)C[C@@H]1C`, the growth inhibition call was “inactive”. Take `COc1ccc(NC(=O)N(C)C[C@H]2OCCCC[C@H](C)Oc3ccc(NC(=O)NC4CCCCC4)cc3C(=O)N([C@@H](C)CO)C[C@@H]2C)cc1`: the growth inhibition call is “inactive”. Regarding `CCCNC(=O)N1[C@@H]2Cn3c(cccc3=O)[C@H]1[C@@H](C(=O)NCC(F)(F)F)[C@@H]2CO`, the growth inhibition call was “inactive”. Take `C[C@H]1CCCCO[C@@H](CN(C)C(=O)c2ccccc2)[C@@H](C)CN([C@@H](C)CO)C(=O)c2cc(NS(=O)(=O)c3ccc(Cl)cc3)ccc2O1`: the growth inhibition call was “inactive”.

Consider `C[C@@H]1CN([C@H](C)CO)C(=O)c2cccc(NC(=O)C3CCOCC3)c2O[C@@H]1CN(C)Cc1ccccc1`, for which the growth inhibition call is “inactive”.

Turning to `C[C@@H]1CN([C@H](C)CO)C(=O)c2cc(NC(=O)Nc3ccccc3)ccc2O[C@@H](C)CCCCO[C@@H]1CN(C)C(=O)CCC(F)(F)F`, the growth inhibition call was “inactive”. As for `Cc1noc(C)c1S(=O)(=O)Nc1ccc2c(c1)CC(=O)N([C@@H](C)CO)C[C@@H](C)[C@@H](CN(C)S(=O)(=O)c1ccc(F)cc1)O2`, the growth inhibition call is “inactive”. As to `C[C@H]1CCCCO[C@@H](CN(C)Cc2ccncc2)[C@@H](C)CN([C@@H](C)CO)C(=O)c2cc(NC(=O)Nc3ccccc3)ccc2O1`, the growth inhibition call was “inactive”. As for `O=C(N[C@@H](c1ccccc1)c1ccc2ccccc2n1)C1CCN(Cc2cccc(C(F)(F)F)c2)CC1`, the growth inhibition call was “inactive”. `C[C@@H]1CN([C@H](C)CO)C(=O)c2cccc(NC(=O)Nc3ccccc3)c2O[C@@H]1CN(C)Cc1ccc(Oc2ccccc2)cc1`: the growth inhibition call is “inactive”. In the case of `C[C@@H](Sc1nc(N)cc(N)n1)C(=O)O`, the growth inhibition call is “inactive”. Regarding `C[C@H](CO)N1C[C@H](C)[C@H](CN(C)C(=O)C2CCOCC2)Oc2ncc(/C=C/c3ccccc3)cc2C1=O`, the growth inhibition call is “inactive”. As to `Cc1ccc(S(=O)(=O)N(C)C[C@H]2Oc3ccc(NS(=O)(=O)c4ccccc4)cc3C(=O)N([C@@H](C)CO)C[C@H]2C)cc1`, the growth inhibition call is “inactive”. Take `CC(C)NC(=O)N(C)C[C@@H]1OCCCC[C@H](C)Oc2ccc(NS(=O)(=O)c3cn(C)cn3)cc2C(=O)N([C@H](C)CO)C[C@@H]1C`: the growth inhibition call was “inactive”. Consider `COc1ccc(S(=O)(=O)N(C)C[C@@H]2Oc3ccc(NS(C)(=O)=O)cc3CC(=O)N([C@H](C)CO)C[C@H]2C)cc1`, for which the growth inhibition call is “inactive”. As for `Cl.c1ccc(C2CN3CCSC3=N2)cc1` (configuration not stated), the growth inhibition call is “inactive”. Consider `C[C@H]1CN([C@@H](C)CO)S(=O)(=O)c2ccc(C#CCC3CCCC3)cc2O[C@@H]1CN(C)C(=O)c1cnccn1`, for which the growth inhibition call is “inactive”. Same read-out and setting: next, `COC1=CC(=O)c2ccccc2C1=O`: “inactive”; `C[C@@H]1CN([C@H](C)CO)S(=O)(=O)c2ccc(C#CC3CC3)cc2O[C@H]1CN(C)Cc1cccc(F)c1`: “inactive”; `CO[C@@H](CN(C)C(=O)Nc1ccc(C(F)(F)F)cc1)[C@H](C)CN(Cc1ccccc1Cl)[C@H](C)CO`: “inactive”.

With `C[C@H](CO)N1C[C@H](C)[C@H](CN(C)C(=O)Cc2cccnc2)Oc2cc(-c3cncnc3)ccc2S1(=O)=O`, the growth inhibition call is “inactive”. `C[C@@H]1CN([C@H](C)CO)C(=O)c2cc(NC(=O)c3ccccc3)ccc2O[C@@H](C)CCCCO[C@@H]1CN(C)C(=O)c1ccccc1`: the growth inhibition call is “inactive”.
